In PMC11658185, “Analysis of the quadruple lsu mutant reveals molecular determinants of the role of LSU proteins in sulfur assimilation in Arabidopsis” (The Plant Journal, 2024):
No constants are given. Whether binding was seen depends on the method and setting. For some assays here: In cells and extracts the contact can be indirect. Some binding calls cover weakened binding; strength is not graded here. For some assays here: Sequences can lack the tags named with a protein. Blank lines part the entries; values can stand above or below the binder they belong to.

What was measured:
[1] = biological target: T1, sulfite reductase (SiR) (A. thaliana) (UniProt Q9LZ66); assay: two-hybrid; yeast two-hybrid, ORFs in pDEST-GAD or pDEST-GBK (GAL4 AD and BD fusions); the panel of enzymes and LSU proteins tested in both orientations; growth on selection media, plates 3 days at 30°C
T1 sequence: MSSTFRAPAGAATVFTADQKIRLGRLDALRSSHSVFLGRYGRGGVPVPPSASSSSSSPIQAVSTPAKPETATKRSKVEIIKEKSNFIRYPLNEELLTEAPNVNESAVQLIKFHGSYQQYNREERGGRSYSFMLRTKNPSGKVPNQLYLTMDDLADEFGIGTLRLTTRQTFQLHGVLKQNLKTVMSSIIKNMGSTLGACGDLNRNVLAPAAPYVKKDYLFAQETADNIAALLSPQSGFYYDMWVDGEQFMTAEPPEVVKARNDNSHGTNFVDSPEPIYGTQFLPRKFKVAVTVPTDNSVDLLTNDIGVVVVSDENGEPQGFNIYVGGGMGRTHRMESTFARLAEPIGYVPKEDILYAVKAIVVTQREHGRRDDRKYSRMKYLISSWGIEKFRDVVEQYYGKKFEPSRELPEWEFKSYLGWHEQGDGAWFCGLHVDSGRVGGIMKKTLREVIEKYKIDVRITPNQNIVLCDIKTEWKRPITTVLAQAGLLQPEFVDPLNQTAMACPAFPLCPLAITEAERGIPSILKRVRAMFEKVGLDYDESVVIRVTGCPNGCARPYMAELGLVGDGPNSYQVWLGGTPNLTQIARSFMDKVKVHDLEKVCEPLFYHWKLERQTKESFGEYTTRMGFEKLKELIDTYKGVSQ

[2] = biological target: T2, adenosine 5' phosphosulfate reductase isoform APR3 (A. thaliana) (UniProt P92980); assay: as above
T2 sequence: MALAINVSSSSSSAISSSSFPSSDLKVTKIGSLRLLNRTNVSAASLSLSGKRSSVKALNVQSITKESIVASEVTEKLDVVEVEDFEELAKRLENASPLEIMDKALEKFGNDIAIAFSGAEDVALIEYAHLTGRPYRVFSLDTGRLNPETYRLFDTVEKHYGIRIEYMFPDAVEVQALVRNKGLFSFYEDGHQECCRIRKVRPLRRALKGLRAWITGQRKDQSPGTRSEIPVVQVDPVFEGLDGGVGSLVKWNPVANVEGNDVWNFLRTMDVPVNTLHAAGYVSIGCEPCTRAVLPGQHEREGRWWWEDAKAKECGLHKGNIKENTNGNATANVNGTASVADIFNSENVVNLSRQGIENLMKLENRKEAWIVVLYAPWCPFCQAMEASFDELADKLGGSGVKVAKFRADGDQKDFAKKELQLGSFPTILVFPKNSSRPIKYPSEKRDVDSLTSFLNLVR

[3] = biological target: T3, adenosine 5' phosphosulfate reductase isoform APR1 (A. thaliana) (UniProt P92979); assay: as above
T3 sequence: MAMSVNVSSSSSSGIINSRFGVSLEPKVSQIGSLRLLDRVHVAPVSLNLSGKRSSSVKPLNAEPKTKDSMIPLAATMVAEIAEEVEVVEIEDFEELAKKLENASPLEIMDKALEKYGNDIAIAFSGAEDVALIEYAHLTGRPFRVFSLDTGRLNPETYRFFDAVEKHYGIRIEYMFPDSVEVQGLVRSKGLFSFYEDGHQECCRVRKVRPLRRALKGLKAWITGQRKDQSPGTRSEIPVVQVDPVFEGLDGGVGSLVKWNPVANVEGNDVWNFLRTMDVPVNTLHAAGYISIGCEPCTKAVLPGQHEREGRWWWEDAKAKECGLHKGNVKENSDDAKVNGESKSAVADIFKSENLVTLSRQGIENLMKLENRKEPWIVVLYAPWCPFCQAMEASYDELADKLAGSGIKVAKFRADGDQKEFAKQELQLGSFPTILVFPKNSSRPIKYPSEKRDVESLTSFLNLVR

[4] = biological target: T4, adenosine 5' phosphosulfate reductase isoform APR2 (A. thaliana) (UniProt P92981); assay: as above
T4 sequence: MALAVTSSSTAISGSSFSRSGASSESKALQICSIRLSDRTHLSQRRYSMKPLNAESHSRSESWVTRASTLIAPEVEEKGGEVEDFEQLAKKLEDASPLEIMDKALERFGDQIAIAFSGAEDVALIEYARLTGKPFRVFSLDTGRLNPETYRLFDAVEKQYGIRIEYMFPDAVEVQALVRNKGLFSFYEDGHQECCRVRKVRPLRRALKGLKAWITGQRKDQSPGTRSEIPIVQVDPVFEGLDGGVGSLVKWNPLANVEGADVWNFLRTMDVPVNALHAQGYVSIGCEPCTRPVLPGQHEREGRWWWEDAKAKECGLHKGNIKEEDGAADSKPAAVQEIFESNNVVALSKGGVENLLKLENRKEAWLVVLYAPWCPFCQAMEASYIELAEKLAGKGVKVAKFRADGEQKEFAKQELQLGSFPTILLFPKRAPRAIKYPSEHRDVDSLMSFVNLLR

[5] = biological target: T5, ATP sulfurylase isoform ATPS1 (A. thaliana), Q9LIK9; assay: as above; conditions: remark: other sources report otherwise
T5 chain: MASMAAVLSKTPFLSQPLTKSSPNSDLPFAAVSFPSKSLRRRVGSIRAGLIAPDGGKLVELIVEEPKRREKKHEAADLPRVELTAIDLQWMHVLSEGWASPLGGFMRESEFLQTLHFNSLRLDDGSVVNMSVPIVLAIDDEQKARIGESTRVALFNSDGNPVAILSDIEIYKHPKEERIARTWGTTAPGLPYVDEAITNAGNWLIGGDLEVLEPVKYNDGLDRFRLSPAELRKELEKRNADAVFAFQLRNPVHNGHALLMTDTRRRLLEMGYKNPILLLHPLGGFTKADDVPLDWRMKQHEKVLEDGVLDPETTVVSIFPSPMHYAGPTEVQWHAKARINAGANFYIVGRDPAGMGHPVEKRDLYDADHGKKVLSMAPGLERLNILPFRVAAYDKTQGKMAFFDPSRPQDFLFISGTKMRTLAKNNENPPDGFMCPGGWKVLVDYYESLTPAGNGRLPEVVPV

[6] = biological target: T6, ATPS1 linked to the C-terminal section of YFP (A. thaliana) (UniProt Q9LIK9); assay: split reporter; BiFC in agroinfiltrated N. benthamiana leaves; nEYFP linked to LSU1, cEYFP linked to ATPS1, APR1 or SiR; confocal microscopy
T6 sequence: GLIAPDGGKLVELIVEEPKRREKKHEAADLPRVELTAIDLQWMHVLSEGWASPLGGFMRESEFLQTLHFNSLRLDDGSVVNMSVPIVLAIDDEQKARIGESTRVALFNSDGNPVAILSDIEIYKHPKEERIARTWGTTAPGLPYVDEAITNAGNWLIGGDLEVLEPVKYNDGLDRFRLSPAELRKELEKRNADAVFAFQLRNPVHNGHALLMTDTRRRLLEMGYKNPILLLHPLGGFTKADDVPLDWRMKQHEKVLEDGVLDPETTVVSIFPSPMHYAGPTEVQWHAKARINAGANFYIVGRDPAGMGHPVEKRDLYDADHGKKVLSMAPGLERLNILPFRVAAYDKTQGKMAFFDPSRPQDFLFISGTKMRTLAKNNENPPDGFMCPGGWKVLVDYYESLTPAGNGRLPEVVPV

[7] = biological target: T7, APR1 linked to the C-terminal section of YFP (A. thaliana) (UniProt P92979); assay: as above
T7 sequence: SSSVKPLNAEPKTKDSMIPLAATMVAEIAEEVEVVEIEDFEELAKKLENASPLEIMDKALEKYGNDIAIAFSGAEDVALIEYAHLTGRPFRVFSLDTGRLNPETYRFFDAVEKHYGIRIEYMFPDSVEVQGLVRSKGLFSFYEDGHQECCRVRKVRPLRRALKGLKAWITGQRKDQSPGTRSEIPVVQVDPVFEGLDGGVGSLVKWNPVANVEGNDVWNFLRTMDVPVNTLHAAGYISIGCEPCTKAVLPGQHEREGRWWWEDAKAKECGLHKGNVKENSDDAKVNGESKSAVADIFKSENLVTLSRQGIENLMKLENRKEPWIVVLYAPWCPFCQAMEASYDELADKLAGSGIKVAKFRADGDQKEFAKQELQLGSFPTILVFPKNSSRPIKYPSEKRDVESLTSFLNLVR

[8] = biological target: T8, SiR linked to the C-terminal section of YFP (A. thaliana) (UniProt Q9LZ66); assay: as above
T8 sequence: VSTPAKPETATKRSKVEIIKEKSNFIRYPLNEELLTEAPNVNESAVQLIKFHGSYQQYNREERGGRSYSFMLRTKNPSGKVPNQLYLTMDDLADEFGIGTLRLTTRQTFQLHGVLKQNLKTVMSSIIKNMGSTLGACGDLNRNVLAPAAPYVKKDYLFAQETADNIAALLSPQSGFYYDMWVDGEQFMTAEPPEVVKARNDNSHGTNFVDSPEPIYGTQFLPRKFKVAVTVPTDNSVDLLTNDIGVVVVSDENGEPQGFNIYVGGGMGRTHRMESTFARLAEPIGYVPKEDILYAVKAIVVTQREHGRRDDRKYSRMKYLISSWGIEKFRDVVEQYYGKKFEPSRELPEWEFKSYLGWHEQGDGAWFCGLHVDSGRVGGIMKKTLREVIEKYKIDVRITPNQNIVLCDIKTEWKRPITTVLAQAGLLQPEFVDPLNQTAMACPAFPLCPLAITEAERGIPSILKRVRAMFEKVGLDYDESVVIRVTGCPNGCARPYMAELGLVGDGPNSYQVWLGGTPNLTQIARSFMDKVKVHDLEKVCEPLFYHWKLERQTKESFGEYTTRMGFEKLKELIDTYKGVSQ

B2: LSU2 (RESPONSE TO LOW SULFUR 2) (protein, UniProt Q9FIR9 1-94)
chain: MGKGGNYVTVAASEVDELRRKNGEMEKAVEEMKKEMLQLWRRTQVAEEAEERLCSQLAELEAESLDQARDYHSRIIFLMNELSRLSSDSASASP
- binding [2]: binds
- binding [3]: binds
- binding [1]: binds
- binding [4]: binds

B3: LSU2 (RESPONSE TO LOW SULFUR 2), Q9FIR9 1-94 (protein)
chain: B2 chain
- binding [5]: binds

B6: LSU3 (RESPONSE TO LOW SULFUR 3) (protein, UniProt Q9SCK2 1-97)
chain: MGKGGGYVTVAAEEVEELRRRNGELEREMEEMKKEMVQLWRRTVVAEEAEERLCSQLAELEVESLDQARDYHSRIVFLMDQISRLSSSSLEVVVTNS
- binding [2]: binds
- binding [3]: binds
- binding [1]: binds
- binding [4]: binds

B7: LSU3 (RESPONSE TO LOW SULFUR 3), Q9SCK2 1-97 (protein)
chain: B6 chain
- binding [5]: binds

B8: LSU1 (RESPONSE TO LOW SULFUR 1), Q9SCK1 1-94 (protein)
chain: MANRGGCVTVAAEEMDELRRRNIELSREVAEMKTEMIKLWQRTVVAEEAEEQLCSQLAELEVESLEQARDYHDRMLFLMDQISRLSSSSVVSSS
- binding [5]: binds

B9: LSU1 linked to the N-terminal section of YFP (protein, UniProt Q9SCK1 1-94)
chain: B8 chain
- binding [6]: binds
- binding [7]: binds
- binding [8]: binds

Further lines, results first:

- binding [1]: no binding
B1: ZIP protein, DNA-binding domain (bZIP domain) of ABF3 (domain or fragment, UniProt Q9M7Q3 372-435)
chain: IERRQKRMIKNRESAARSRARKQAYTMELEAEIAQLKELNEELQKKQVEIMEKQKNQLLEPLRQ

- binding [2]: binds
- binding [3]: binds
- binding [1]: binds
- binding [4]: binds
B4: LSU4 (RESPONSE TO LOW SULFUR 4) (protein, UniProt Q8L8S2 1-92)
chain: MGKGGNYVMVAASEVEELRQKNGEMEKAVEEMRKEMLQLWRRTQVAEEAEEHLCSQLAELEAESLDQARDYHTRIIFLTNQLSRFSSDSASP

- binding [5]: binds
B5: LSU4 (RESPONSE TO LOW SULFUR 4), Q8L8S2 1-92 (protein)
chain: B4 chain
